Paper PMC12820563, “FoxP3 forms a head-to-head dimer in vivo and stabilizes its multimerization on adjacent microsatellites”
The other results are listed elsewhere or left out.

target: T1, MBP-FoxP1dN (Mus musculus, UniProt P58462 326-579); assay: PD-seq (MBP pull-down with sequencing); 20 mM Tris-HCl pH 7.5, 100 mM NaCl, 1.5 mM MgCl2, 0.4 uM protein, 0.1 uM dsDNA library, 30 min, room temperature, amylose pull-down; high values mean tight binding; conditions: protein: recombinant; tags: His6-MBP; chain copies: 2; dsDNA, one strand shown
T1 sequence: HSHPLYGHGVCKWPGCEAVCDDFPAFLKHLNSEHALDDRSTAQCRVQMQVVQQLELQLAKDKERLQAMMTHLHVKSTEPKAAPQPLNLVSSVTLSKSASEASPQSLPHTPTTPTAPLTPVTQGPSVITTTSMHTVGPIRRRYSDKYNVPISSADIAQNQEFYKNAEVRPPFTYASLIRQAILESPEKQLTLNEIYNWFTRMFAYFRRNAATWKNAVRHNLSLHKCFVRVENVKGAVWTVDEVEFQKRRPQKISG
Method in brief: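 His6-MBP-tagged mouse FoxP3 or FoxP1 fragment lacking the N-terminus, expressed in E. coli, was mixed at 0.4 µM with 0.1 µM Klenow-filled double-stranded degenerate DNA library. Incubation was 30 min at room temperature in Tris pH 7.5 buffer with NaCl and MgCl2. Complexes were caught on amylose resin and washed three times; DNA was released with proteinase K, PCR-barcoded and Illumina-sequenced. Binding is reads-per-million enrichment, pull-down over input, with replicates pooled.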

| Sequence | binding signal |
| --- | --- |
| GATGATTGTTCTCCCAGCTGATGAATTAAACGGGTCGAGTAAACAAATTTTCCTAATCTTTCTGTTCAAGCGCCATCTAC | 0.869 RPM ratio (pull-down/input) |
| GATGATTGTTCTCCCAGCTGATGAATTCCCAGAATCGAGTAAACAAATTTTCCTAATCTTTCTGTTCAAGCGCCATCTAC | 0.889 RPM ratio (pull-down/input) |
| GATGATTGTTCTCCCAGCTGATGAATTCGGCTAATCGAGTAAACAAATTTTCCTAATCTTTCTGTTCAAGCGCCATCTAC | 0.837 RPM ratio (pull-down/input) |
| GATGATTGTTCTCCCAGCTGATGAATTTAGGGAGTCGAGTAAACAAATTTTCCTAATCTTTCTGTTCAAGCGCCATCTAC | 0.905 RPM ratio (pull-down/input) |
| GATGATTGTTCTCCCAGCTGATGAATTTTGGAAGTCGAGTAAACAAATTTTCCTAATCTTTCTGTTCAAGCGCCATCTAC | 0.873 RPM ratio (pull-down/input) |
| GATGATTGTTCTCCCAGCTGATGAATTATCTTCCTCGAGTAAACAAATTTTCCTAATCTTTCTGTTCAAGCGCCATCTAC | 0.887 RPM ratio (pull-down/input) |
| GATGATTGTTCTCCCAGCTGATGAATTCCGTCCATCGAGTAAACAAATTTTCCTAATCTTTCTGTTCAAGCGCCATCTAC | 0.856 RPM ratio (pull-down/input) |
| GATGATTGTTCTCCCAGCTGATGAATTCTTGCTCTCGAGTAAACAAATTTTCCTAATCTTTCTGTTCAAGCGCCATCTAC | 0.781 RPM ratio (pull-down/input) |
| GATGATTGTTCTCCCAGCTGATGAATTGAGTTTATCGAGTAAACAAATTTTCCTAATCTTTCTGTTCAAGCGCCATCTAC | 1.41 RPM ratio (pull-down/input) |
| GATGATTGTTCTCCCAGCTGATGAATTAAACTCATCGAGTAAACAAATTTTCCTAATCTTTCTGTTCAAGCGCCATCTAC | 0.982 RPM ratio (pull-down/input) |
| GATGATTGTTCTCCCAGCTGATGAATTAGACGCATCGAGTAAACAAATTTTCCTAATCTTTCTGTTCAAGCGCCATCTAC | 1.19 RPM ratio (pull-down/input) |
| GATGATTGTTCTCCCAGCTGATGAATTCGCGGGATCGAGTAAACAAATTTTCCTAATCTTTCTGTTCAAGCGCCATCTAC | 0.826 RPM ratio (pull-down/input) |
| GATGATTGTTCTCCCAGCTGATGAATTGTGCGTTTCGAGTAAACAAATTTTCCTAATCTTTCTGTTCAAGCGCCATCTAC | 1.11 RPM ratio (pull-down/input) |
| GATGATTGTTCTCCCAGCTGATGAATTCCGATAATCGAGTAAACAAATTTTCCTAATCTTTCTGTTCAAGCGCCATCTAC | 1.08 RPM ratio (pull-down/input) |
| GATGATTGTTCTCCCAGCTGATGAATTGGAGATGTCGAGTAAACAAATTTTCCTAATCTTTCTGTTCAAGCGCCATCTAC | 0.866 RPM ratio (pull-down/input) |
| GATGATTGTTCTCCCAGCTGATGAATTCACTTGTTCGAGTAAACAAATTTTCCTAATCTTTCTGTTCAAGCGCCATCTAC | 0.888 RPM ratio (pull-down/input) |

| Sequence | binding signal |
| --- | --- |
| GATGATTGTTCTCCCAGCTGATGAATTATCCCCATCGAGTAAACAAATTTTCCTAATCTTTCTGTTCAAGCGCCATCTAC | 1.04 RPM ratio (pull-down/input) |
| GATGATTGTTCTCCCAGCTGATGAATTCTAGTGTTCGAGTAAACAAATTTTCCTAATCTTTCTGTTCAAGCGCCATCTAC | 1.06 RPM ratio (pull-down/input) |
| GATGATTGTTCTCCCAGCTGATGAATTAAGGTTTTCGAGTAAACAAATTTTCCTAATCTTTCTGTTCAAGCGCCATCTAC | 1.01 RPM ratio (pull-down/input) |
| GATGATTGTTCTCCCAGCTGATGAATTCTTTCGATCGAGTAAACAAATTTTCCTAATCTTTCTGTTCAAGCGCCATCTAC | 0.874 RPM ratio (pull-down/input) |
| GATGATTGTTCTCCCAGCTGATGAATTATTCTGTTCGAGTAAACAAATTTTCCTAATCTTTCTGTTCAAGCGCCATCTAC | 1.18 RPM ratio (pull-down/input) |
| GATGATTGTTCTCCCAGCTGATGAATTGCTGGGATCGAGTAAACAAATTTTCCTAATCTTTCTGTTCAAGCGCCATCTAC | 0.939 RPM ratio (pull-down/input) |
| GATGATTGTTCTCCCAGCTGATGAATTGACGACGTCGAGTAAACAAATTTTCCTAATCTTTCTGTTCAAGCGCCATCTAC | 1.07 RPM ratio (pull-down/input) |
| GATGATTGTTCTCCCAGCTGATGAATTTCTTAGGTCGAGTAAACAAATTTTCCTAATCTTTCTGTTCAAGCGCCATCTAC | 0.814 RPM ratio (pull-down/input) |
| GATGATTGTTCTCCCAGCTGATGAATTAAGTTTCTCGAGTAAACAAATTTTCCTAATCTTTCTGTTCAAGCGCCATCTAC | 0.867 RPM ratio (pull-down/input) |
| GATGATTGTTCTCCCAGCTGATGAATTGAACGCCTCGAGTAAACAAATTTTCCTAATCTTTCTGTTCAAGCGCCATCTAC | 0.893 RPM ratio (pull-down/input) |
| GATGATTGTTCTCCCAGCTGATGAATTTTGCCCTTCGAGTAAACAAATTTTCCTAATCTTTCTGTTCAAGCGCCATCTAC | 0.894 RPM ratio (pull-down/input) |
| GATGATTGTTCTCCCAGCTGATGAATTTCTTTAATCGAGTAAACAAATTTTCCTAATCTTTCTGTTCAAGCGCCATCTAC | 1.06 RPM ratio (pull-down/input) |
| GATGATTGTTCTCCCAGCTGATGAATTCCTCTGTTCGAGTAAACAAATTTTCCTAATCTTTCTGTTCAAGCGCCATCTAC | 0.789 RPM ratio (pull-down/input) |
| GATGATTGTTCTCCCAGCTGATGAATTAATGTAATCGAGTAAACAAATTTTCCTAATCTTTCTGTTCAAGCGCCATCTAC | 1.68 RPM ratio (pull-down/input) |
| GATGATTGTTCTCCCAGCTGATGAATTCACACGTTCGAGTAAACAAATTTTCCTAATCTTTCTGTTCAAGCGCCATCTAC | 0.882 RPM ratio (pull-down/input) |
